Patent publication US11000038B2, “Pyridone compounds and agricultural and horticultural fungicides containing the same as active ingredients” (priority 2017, dated 2021)

Legend:
[1] = test system: cucumber anthracnose fungi (Colletotrichum orbiculare); experiment: Test Example H: cucumber anthracnose, spray treatment of cucumber plants; conditions: cucumber anthracnose, 250 ppm spray, 6 to 10 days after inoculation
[2] = test system: rice blast fungi (Magnaporthe grisea); type: in vivo; conditions: rice blast, spray treatment
[3] = test system: tomato late blight fungi (Phytophthora infestans); type: in vivo; conditions: tomato late blight, spray treatment

CCc1c(-c2c(F)cc(F)cc2F)n(-c2cccc(OC)c2C)cc(Br)c1=O [Compound 513]
Test H control value [1]: H (H shows the control value of more than 50%)
Test A control value [2]: H (H shows the control value of more than 50%)
Test F control value [3]: L (L shows the control value of 50% or less)

CCc1c(-c2c(F)cc(F)cc2F)n(-c2cccc(OC)c2C)cc(C)c1=O [Compound 514]
Test H control value [1]: H (H shows the control value of more than 50%)
Test A control value [2]: H (H shows the control value of more than 50%)
Test F control value [3]: L (L shows the control value of 50% or less)

CCc1c(-c2c(F)cc(F)cc2F)n(-c2cccc(Cl)c2C)cc(Br)c1=O [Compound 515]
Test H control value [1]: H (H shows the control value of more than 50%)
Test A control value [2]: H (H shows the control value of more than 50%)
Test F control value [3]: H (H shows the control value of more than 50%)

CCc1ccccc1-n1cc(C)c(=O)c(C)c1-c1ccccc1 [Compound 516]
Test H control value [1]: H (H shows the control value of more than 50%)
Test A control value [2]: L (L shows the control value of 50% or less)
Test F control value [3]: H (H shows the control value of more than 50%)

Cc1ccc(Cl)cc1-n1cc(C)c(=O)c(C)c1-c1ccccc1 [Compound 517]
Test H control value [1]: L (L shows the control value of 50% or less)
Test A control value [2]: L (L shows the control value of 50% or less)
Test F control value [3]: H (H shows the control value of more than 50%)

Cc1ccc(Br)cc1-n1cc(C)c(=O)c(C)c1-c1ccccc1 [Compound 518]
Test H control value [1]: H (H shows the control value of more than 50%)
Test A control value [2]: H (H shows the control value of more than 50%)
Test F control value [3]: L (L shows the control value of 50% or less)

CCc1c(-c2c(F)cc(F)cc2F)n(-c2cc(C)ccc2C)cc(Br)c1=O [Compound 519]
Test H control value [1]: H (H shows the control value of more than 50%)
Test A control value [2]: H (H shows the control value of more than 50%)
Test F control value [3]: L (L shows the control value of 50% or less)

CCc1c(-c2c(F)cc(F)cc2F)n(-c2cc(C)ccc2C)cc(C)c1=O [Compound 520]
Test H control value [1]: H (H shows the control value of more than 50%)
Test A control value [2]: H (H shows the control value of more than 50%)
Test F control value [3]: L (L shows the control value of 50% or less)

CCc1c(-c2c(F)cc(F)cc2F)n(-c2cc(F)ccc2C)cc(Br)c1=O [Compound 521]
Test H control value [1]: H (H shows the control value of more than 50%)
Test A control value [2]: H (H shows the control value of more than 50%)
Test F control value [3]: L (L shows the control value of 50% or less)

CCc1c(-c2c(F)cc(F)cc2F)n(-c2cc(F)ccc2C)cc(C)c1=O [Compound 522]
Test H control value [1]: H (H shows the control value of more than 50%)
Test A control value [2]: H (H shows the control value of more than 50%)
Test F control value [3]: L (L shows the control value of 50% or less)

COc1cccc(-n2cc(C)c(=O)c(C)c2-c2c(F)cccc2F)c1C [Compound 523]
Test H control value [1]: H (H shows the control value of more than 50%)
Test A control value [2]: H (H shows the control value of more than 50%)
Test F control value [3]: L (L shows the control value of 50% or less)

CCc1c(-c2c(F)cccc2F)n(-c2cccc(Cl)c2C)cc(Br)c1=O [Compound 524]
Test H control value [1]: L (L shows the control value of 50% or less)
Test A control value [2]: H (H shows the control value of more than 50%)
Test F control value [3]: L (L shows the control value of 50% or less)

CCc1c(-c2c(F)cccc2F)n(-c2cccc(Cl)c2C)cc(C)c1=O [Compound 525]
Test H control value [1]: H (H shows the control value of more than 50%)
Test A control value [2]: H (H shows the control value of more than 50%)
Test F control value [3]: L (L shows the control value of 50% or less)

CCc1c(-c2c(F)cccc2F)n(-c2cccc(Br)c2C)cc(Br)c1=O [Compound 526]
Test H control value [1]: H (H shows the control value of more than 50%)
Test A control value [2]: H (H shows the control value of more than 50%)
Test F control value [3]: L (L shows the control value of 50% or less)

CCc1c(-c2c(F)cc(F)cc2F)n(-c2cc(OC)ccc2C)cc(Br)c1=O [Compound 527]
Test H control value [1]: H (H shows the control value of more than 50%)
Test A control value [2]: H (H shows the control value of more than 50%)
Test F control value [3]: L (L shows the control value of 50% or less)

CCc1c(-c2c(F)cc(F)cc2F)n(-c2cccc(C)c2C)cc(Br)c1=O [Compound 528, 5-bromo-1-(2,3-dimethylphenyl)-3-ethyl-2-(2,4,6-trifluorophenyl)pyridin-4(1H)-one]
Test H control value [1]: H (H shows the control value of more than 50%)
Test A control value [2]: H (H shows the control value of more than 50%)
Test F control value [3]: L (L shows the control value of 50% or less)

CCc1c(-c2c(F)cc(F)cc2F)n(-c2cc(Br)ccc2C)cc(Br)c1=O [Compound 529]
Test H control value [1]: H (H shows the control value of more than 50%)
Test A control value [2]: H (H shows the control value of more than 50%)
Test F control value [3]: L (L shows the control value of 50% or less)

CCc1c(-c2c(F)cc(F)cc2F)n(-c2cccc(F)c2C)cc(Br)c1=O [Compound 530]
Test H control value [1]: H (H shows the control value of more than 50%)
Test A control value [2]: H (H shows the control value of more than 50%)
Test F control value [3]: L (L shows the control value of 50% or less)

CCc1c(-c2c(F)cccc2F)n(-c2ccccc2)cc(Br)c1=O [Compound 531]
Test H control value [1]: H (H shows the control value of more than 50%)
Test A control value [2]: H (H shows the control value of more than 50%)
Test F control value [3]: L (L shows the control value of 50% or less)

CCc1c(-c2c(F)cc(F)cc2F)n(-c2cc(OC)ccc2C)cc(C)c1=O [Compound 532]
Test H control value [1]: H (H shows the control value of more than 50%)
Test A control value [2]: H (H shows the control value of more than 50%)
Test F control value [3]: L (L shows the control value of 50% or less)

CCc1c(-c2c(F)cc(F)cc2F)n(-c2cccc(C)c2C)cc(C)c1=O [Compound 533, 1-(2,3-dimethylphenyl)-3-ethyl-5-methyl-2-(2,4,6-trifluorophenyl)pyridin-4(1H)-one]
Test H control value [1]: H (H shows the control value of more than 50%)
Test A control value [2]: H (H shows the control value of more than 50%)
Test F control value [3]: L (L shows the control value of 50% or less)

CCc1ccccc1-n1cc(C)c(=O)c(CC)c1-c1ccccc1 [Compound 534]
Test H control value [1]: H (H shows the control value of more than 50%)
Test A control value [2]: L (L shows the control value of 50% or less)
Test F control value [3]: L (L shows the control value of 50% or less)

CCc1c(-c2ccccc2)n(-c2ccccc2Cl)cc(Br)c1=O [Compound 535]
Test H control value [1]: H (H shows the control value of more than 50%)
Test A control value [2]: L (L shows the control value of 50% or less)
Test F control value [3]: L (L shows the control value of 50% or less)

CCc1c(-c2c(F)cccc2F)n(-c2cc(Cl)ccc2C)cc(C)c1=O [Compound 536]
Test H control value [1]: H (H shows the control value of more than 50%)
Test A control value [2]: L (L shows the control value of 50% or less)
Test F control value [3]: L (L shows the control value of 50% or less)
